We go through 34 molecules from the supplement of paper PMC6609913.

Molecules are shown by their SMILES. Structures can show the parent of a compound that is named as a salt. ± gives the standard deviation of the averaged measurements. Whole data set: some 1,300 compounds, median “normalised cell viability” near 1, cut for the lowest 2% near 0.15. This is one part of the list.

The experiment concerns V-C8 + BRCA2 (BRCA2-proficient hamster cells). Put plainly: normalised cell viability (fraction of plate median); higher = more viable cells (less toxic). To be noted: 5 µM. Summed up:
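Hamster V-C8 cells with and without restored BRCA2 were exposed in 96-well plates to library drugs at 5 μM for 3 days (screen 1) or 6 days (screen 2). Cell viability was scored by resazurin assay, then median-plate normalised, averaging triplicate wells.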

Turning to `CCN(CC)Cc1cc(Nc2ccnc3cc(Cl)ccc23)ccc1O` [Amodiaquin dihydrochloride dihydrate], the normalised cell viability is, setting by setting: (treatment time: 3 days) 0.851 ± 0.042; (treatment time: 6 days) 0.908 ± 0.11.
`COc1ccccc1N1CCN(CCCNc2cc(=O)n(C)c(=O)n2C)CC1` [Urapidil hydrochloride]: the normalised cell viability is, setting by setting: (treatment time: 3 days) 0.969 ± 0.073; (treatment time: 6 days) 1.05 ± 0.061.
Take `Cn1c(=O)c2c(ncn2CCO)n(C)c1=O` [Etofylline]: the normalised cell viability came to 1.003 ± 0.01 (treatment time: 3 days) and 0.989 ± 0.025 (treatment time: 6 days).
Regarding `CC(C)NCC(O)c1cc(O)cc(O)c1` (stereo not drawn) [Metaproterenol sulfate, orciprenaline sulfate], the normalised cell viability was determined as 1.03 ± 0.023 (treatment time: 3 days) and 1.04 ± 0.02 (treatment time: 6 days).
Turning to `C#CCN(C)CCCOc1ccc(Cl)cc1Cl` [Clorgyline hydrochloride], the normalised cell viability by setting is: (treatment time: 3 days) 1.18 ± 0.12; (treatment time: 6 days) 0.987 ± 0.011.
With `O=C(O)CN(CCN(CC(=O)O)CC(=O)O)CCN(CC(=O)O)CC(=O)O` [Pentetic acid], the normalised cell viability by setting is: (treatment time: 3 days) 1.01 ± 0.032; (treatment time: 6 days) 0.995 ± 0.047.
On to `O=C(O)CCNC(=O)c1ccc(/N=N/c2ccc(O)c(C(=O)O)c2)cc1` [Balsalazide Sodium], for which the normalised cell viability amounted to 0.992 ± 0.02 (treatment time: 3 days) and 0.968 ± 0.077 (treatment time: 6 days).
As to `C[n+]1ccccc1/C=N/O` [Pralidoxime chloride], the normalised cell viability runs as follows: (treatment time: 3 days) 0.99 ± 0.036; (treatment time: 6 days) 0.9475 ± 0.0081.
`CCC(C)n1ncn(-c2ccc(N3CCN(c4ccc(OCC5COC(Cn6cncn6)(c6ccc(Cl)cc6Cl)O5)cc4)CC3)cc2)c1=O` (stereo not drawn) [Itraconazole]: the normalised cell viability (treatment time: 3 days) worked out at 0.909 ± 0.013 and the normalised cell viability (treatment time: 6 days) is 0.875 ± 0.14.
On the same counts, the results for `Cc1cccc(Nc2ccccc2C(=O)O)c1C` [Mefenamic acid] are 1.07 ± 0.068 and 0.995 ± 0.047.
As to `O=C1OC(CN2CCOCC2)CN1/N=C/c1ccc([N+](=O)[O-])o1` (stereo not drawn) [Furaltadone hydrochloride], the normalised cell viability reads like this: (treatment time: 3 days) 0.862 ± 0.038; (treatment time: 6 days) 0.923 ± 0.055.
In the same order, the values of `CNCCCN1c2ccccc2CCc2ccccc21` [Desipramine hydrochloride] are 1 ± 0.022 and 0.89 ± 0.024.
In the same order, the values of `O=C1CCC(N2C(=O)c3ccccc3C2=O)C(=O)N1` (stereo not drawn) [Thalidomide] are 1 ± 0.034 and 1.01 ± 0.053.
`O=C1NCCN1CCN1CCC(c2cn(-c3ccc(F)cc3)c3ccc(Cl)cc23)CC1` [Sertindole]: the normalised cell viability worked out at 0.914 ± 0.067 (treatment time: 3 days) and 0.893 ± 0.088 (treatment time: 6 days).
On the same counts, the results for `CCN(CC)CCNC(=O)COc1ccc(OC)cc1` [Mefexamide hydrochloride] are 1.02 ± 0.012 and 1.01 ± 0.024.
Take `CC(=O)OCC1=C(C(=O)O)N2C(=O)[C@@H](NC(=O)Cc3cccs3)[C@H]2SC1` [Cephalothin sodium salt]: the normalised cell viability (treatment time: 3 days) worked out at 0.868 ± 0.026 and the normalised cell viability (treatment time: 6 days) came out at 0.96 ± 0.14.
For the molecule `Clc1ccc(C(Cn2ccnc2)OCc2csc3c(Cl)cccc23)c(Cl)c1` (stereo not drawn) [Sertaconazole nitrate], the normalised cell viability (treatment time: 3 days) was 0.949 ± 0.071 and the normalised cell viability (treatment time: 6 days) was 0.925 ± 0.12.
With `CCCCc1nc(Cl)c(CO)n1Cc1ccc(-c2ccccc2-c2nnn[nH]2)cc1` [Losartan], the normalised cell viability worked out at 0.991 ± 0.025 (treatment time: 3 days) and 0.966 ± 0.047 (treatment time: 6 days).
Regarding `CC1(C)S[C@@H]2[C@H](NC(=O)Cc3ccccc3)C(=O)N2[C@H]1C(=O)O` [Benzylpenicillin sodium], the normalised cell viability came to 1.01 ± 0.018 (treatment time: 3 days) and 1.01 ± 0.084 (treatment time: 6 days).
Turning to `CC1(C)S[C@@H]2[C@H](NC(=O)Cc3ccccc3)C(=O)N2[C@H]1C(=O)O` [Benzathine benzylpenicillin], the normalised cell viability (treatment time: 3 days) was found to be 1.05 ± 0.09 and the normalised cell viability (treatment time: 6 days) turned out to be 0.966 ± 0.019.
As to `O=C1c2cccc3c2[C@H](CCC3)CN1[C@@H]1CN2CCC1CC2` [Palonosetron hydrochloride], the normalised cell viability reads like this: (treatment time: 3 days) 1.05 ± 0.035; (treatment time: 6 days) 0.924 ± 0.054.
On the same counts, the results for `NCC[C@H](O)C(=O)N[C@@H]1C[C@H](N)[C@@H](O[C@H]2O[C@H](CN)[C@@H](O)[C@H](O)[C@H]2O)[C@H](O)[C@H]1O[C@H]1O[C@H](CO)[C@@H](O)[C@H](N)[C@H]1O` [Amikacin hydrate] are 0.584 ± 0.023 and 0.699 ± 0.089.
Turning to `CN(C/C=C/C#CC(C)(C)C)Cc1cccc2ccccc12` [Terbinafine], the normalised cell viability came out at 0.206 ± 0.0049 (treatment time: 3 days) and 0.339 ± 0.031 (treatment time: 6 days).
As for `O=c1[nH]cnc2c1ncn2[C@H]1CC[C@@H](CO)O1` [Didanosine], the normalised cell viability (treatment time: 3 days) turned out to be 0.871 ± 0.031 and the normalised cell viability (treatment time: 6 days) was found to be 0.945 ± 0.093.
As for `Nc1nc(O)c2ncn(CCC(CO)CO)c2n1` [Penciclovir], the normalised cell viability (treatment time: 3 days) came out at 1.01 ± 0.038 and the normalised cell viability (treatment time: 6 days) amounted to 0.906 ± 0.14.
In the same order, the values of `Fc1ccc([C@@H]2CCNC[C@H]2COc2ccc3c(c2)OCO3)cc1` [Paroxetine Hydrochloride] are 0.832 ± 0.017 and 0.876 ± 0.015.
For the molecule `NC(CO)C(=O)NNCc1ccc(O)c(O)c1O` (stereo not drawn) [Benserazide hydrochloride], the normalised cell viability was found to be 1.08 ± 0.088 (treatment time: 3 days) and 1.05 ± 0.022 (treatment time: 6 days).
For `CN(C)CCCN1c2ccccc2CCc2ccccc21` [Imipramine hydrochloride], the normalised cell viability came out at 0.928 ± 0.024 (treatment time: 3 days) and 0.96 ± 0.067 (treatment time: 6 days).
For the molecule `NCCC[C@H](N)CC(=O)N[C@H]1CNC(=O)[C@H]([C@H]2C[C@H](O)NC(N)=N2)NC(=O)/C(=C/NC(N)=O)NC(=O)[C@H](CO)NC(=O)[C@H](CO)NC1=O` [Viomycin sulfate], the normalised cell viability is 0.941 ± 0.15 (treatment time: 3 days) and 0.936 ± 0.076 (treatment time: 6 days).
As to `O=C(Oc1cccc2cccnc12)c1ccccc1` [Benzoxiquine], the normalised cell viability reads like this: (treatment time: 3 days) 0.791 ± 0.052; (treatment time: 6 days) 0.738 ± 0.056.
Consider `CN1CCC(OC(c2ccccc2)c2ccccc2)CC1` [Diphenylpyraline hydrochloride], for which the normalised cell viability stood at 0.976 ± 0.11 (treatment time: 3 days) and 1.04 ± 0.037 (treatment time: 6 days).
In the same order, the values of `Clc1ccc(Nc2nnc(Cc3ccncc3)c3ccccc23)cc1` [Vatalanib] are 0.791 ± 0.051 and 0.905 ± 0.062.
On to `C[C@H](CCC(=O)O)[C@H]1CC[C@H]2[C@@H]3CC[C@@H]4C[C@H](O)CC[C@]4(C)[C@H]3CC[C@]12C` [Lithocholic acid], for which the normalised cell viability by setting is: (treatment time: 3 days) 0.888 ± 0.041; (treatment time: 6 days) 0.885 ± 0.065.
For the molecule `CC(=O)SCC(Cc1ccccc1)C(=O)NCC(=O)OCc1ccccc1` (stereo not drawn) [Racecadotril], the normalised cell viability turned out to be 0.969 ± 0.037 (treatment time: 3 days) and 0.977 ± 0.067 (treatment time: 6 days).
